PubChem BioAssay (NCATS)
Where “and” joins values, the source holds several entries; their conditions need not be identical. Equal values may be shown once. Inconclusive results, whose numbers are uncertain, are shown with a selection of clear calls. For part of these data: A potency beside an inconclusive call is a rough fit, not a confirmed value. Calls of active or inactive are those of the source. Calls come from the whole dose curve; as a rule, active = well fitted curve in the direction sought with a large enough effect; inconclusive = small, poorly fitted or top-dose-only effect, or another doubt; inactive = no such curve, though single readings can be large; an effect the other way counts as inactive or inconclusive.

Key:
[1] = Primary qHTS for inhibitors of nuclear receptor binding SET domain protein 2 (NSD2) in an RCH-ACV wild type WT cells (2C) (AID 1645877); conditions: activity change, negative = cell killing: at 44.9 µM (top of the series) unless noted; note: nearly all actives have a fitted effect of over 70% in size
CRL-7250 = normal cell line; test: Cytotoxic Profiling of Annotated Libraries Using Quantitative High-Throughput Screening (AID 1296008); conditions: Five cell lines viability, CellTiter-Glo ATP luminescence, 48-72 h; max response: stronger effect = lower value; note: nearly all actives have a fitted effect of over 60% in size; for max response: % is set by controls: 0 for no effect and ±100 for the full control effect
Summary of the method: (§1)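 Compounds were pin-transferred onto cells and incubated 48 or 72 hr at 37 degree Celsius, 95% humidity. CellTiter-Glo was added, plates sat 10 min at room temperature, then ATP-coupled luminescence was imaged as the viability read-out.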

HaCat = test: as above; conditions: Five cell lines viability, CellTiter-Glo ATP luminescence, 48-72 h; max response: stronger effect = lower value
Summary of the method: as §1

CAOV3 = test: Primary qHTS to identify gynecologic anti-cancer compounds using libraries of approved drugs and bioactive compounds (AID 1345084); conditions: Gynecologic cancer cell panel viability, ATPlite luminescence, 48 h; activity change, negative = cytotoxicity: at 57.5 µM (top of the series); note: nearly all actives have a fitted effect of over 55% in size; for activity change, negative = cytotoxicity: % is set by controls: 0 for no effect and ±100 for the full control effect
Summary of the method: (§2)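 Cell viability after 48 h drug treatment, ATPlite luminescence readout; five doses.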

Hek293T = test: as above; conditions: Gynecologic cancer cell panel viability, ATPlite luminescence, 48 h, control line for the selectivity index; activity change, negative = cytotoxicity: at 57.5 µM (top of the series) unless noted
Summary of the method: as §2

CASKI = test: as above; conditions: Gynecologic cancer cell panel viability, ATPlite luminescence, 48 h; series mostly up to 57.5 µM
Summary of the method: as §2

SKOV3 = test: as above; conditions: Gynecologic cancer cell panel viability, ATPlite luminescence, 48 h; series mostly up to 57.5 µM
Summary of the method: as §2

[2] = Primary qHTS for inhibitors of nuclear receptor binding SET domain protein 2 (NSD2) in an isogenic RCH-ACV NSD2 p.E1099K mutant (9B) (AID 1645876); note: nearly all actives have a fitted effect of over 70% in size
[3] = P-glycoprotein substrates identified in KB-8-5-11 adenocarcinoma cell line, qHTS therapeutic library screen (AID 1346987); note: nearly all actives have a fitted effect of over 65% in size
Summary of the method: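 Luminescence from CellTiter-Glo, read 5 min after addition, quantified survival of KB-8-5-11 (P-gp-overexpressing) cells exposed to compounds for 72 h. AC50 was derived from concentration-response curves.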

NIH3T3 = test: Cytotoxic Profiling of Annotated Libraries Using Quantitative High-Throughput Screening (AID 1296008); conditions: Five cell lines viability, CellTiter-Glo ATP luminescence, 48-72 h; max response: stronger effect = lower value; note: nearly all actives have a fitted effect of over 60% in size; for max response: % is set by controls: 0 for no effect and ±100 for the full control effect
Summary of the method: as §1

C33A = test: Primary qHTS to identify gynecologic anti-cancer compounds using libraries of approved drugs and bioactive compounds (AID 1345084); conditions: Gynecologic cancer cell panel viability, ATPlite luminescence, 48 h; series mostly up to 57.5 µM; note: nearly all actives have a fitted effect of over 55% in size; for activity change, negative = cytotoxicity: % is set by controls: 0 for no effect and ±100 for the full control effect
Summary of the method: as §2

Es-2 = test: as above; conditions: Gynecologic cancer cell panel viability, ATPlite luminescence, 48 h; series mostly up to 57.5 µM
Summary of the method: as §2

HeLa = test: as above; conditions: Gynecologic cancer cell panel viability, ATPlite luminescence, 48 h; activity change, negative = cytotoxicity: at 57.5 µM (top of the series)
Summary of the method: as §2

OV90 = test: as above; conditions: Gynecologic cancer cell panel viability, ATPlite luminescence, 48 h; series mostly up to 57.5 µM
Summary of the method: as §2

PA-1 = test: as above; conditions: Gynecologic cancer cell panel viability, ATPlite luminescence, 48 h; series mostly up to 57.5 µM
Summary of the method: as §2

Tov-21-G = test: as above; conditions: Gynecologic cancer cell panel viability, ATPlite luminescence, 48 h; activity change, negative = cytotoxicity: at 57.5 µM (top of the series) unless noted
Summary of the method: as §2
Potency is the fitted concentration of half-maximal effect; tags give direction and shape of the fitted curve.

SMILES: [Cl][In]([Cl])[Cl]
- Potency [1]: inconclusive: 48.6 µM [inhibitor, single point]
- Potency (CRL-7250): inconclusive: 34.4 µM [inhibitor, partial curve, poor fit]
- Potency (HaCat): inconclusive: 1.54 µM [inhibitor, full curve]
- Potency (CAOV3): inconclusive: 35.5 µM [rising, partial curve]
- Potency (Hek293T): inconclusive: 50.1 µM [cytotoxic, single point]

SMILES: Cc1ncc([N+](=O)[O-])n1C
- Potency (CRL-7250): inconclusive: 33.5 µM [inhibitor, single point]
- Potency (HaCat): inconclusive: 23.7 µM [inhibitor, single point]
- Potency (CASKI): inactive
- Potency (SKOV3): inconclusive: 1 µM [cytotoxic, full curve, poor fit]

SMILES: CC(=O)O[C@@H]1C(=O)O[C@@H]2[C@H]1OC(=O)[C@@H]2OC(C)=O
- Potency [2]: inconclusive: 21.1 µM [inhibitor, partial curve, poor fit]
- Potency [1]: inconclusive: 23.7 µM [inhibitor, single point]
- Potency (CRL-7250): inconclusive: 3.76 µM [inhibitor, full curve]
- Potency (HaCat): inconclusive: 33.5 µM [inhibitor, partial curve, poor fit]
- Potency (CAOV3): inactive

SMILES: CN(C)CCCCC(=O)Nc1ccc(NC(=S)NC(=O)c2ccc(C(C)(C)C)cc2)cc1
- Potency [3]: active: 13 µM
- Potency [2]: active: 1.83 µM
- Potency (CRL-7250): inconclusive: 20.6 µM [inhibitor, single point]
- Potency (HaCat): inconclusive: 29.1 µM [inhibitor, single point]
- Potency (NIH3T3): active: 7.31 µM
- Potency (C33A): inactive
- Potency (CAOV3): inconclusive: 31.6 µM [cytotoxic, single point]
- Potency (Es-2): inconclusive: 39.8 µM [cytotoxic, single point]
- Potency (HeLa): inconclusive: 14.1 µM [cytotoxic, partial curve]
- Potency (Hek293T): inconclusive: 12.6 µM [cytotoxic, partial curve]
- Potency (OV90): inconclusive: 20 µM [cytotoxic, partial curve, poor fit]
- Potency (PA-1): active: 15.8 µM
- Potency (SKOV3): inconclusive: 3.16 µM [cytotoxic, partial curve, poor fit]
- Potency (Tov-21-G): inconclusive: 20 µM [cytotoxic, single point]

SMILES: C[C@H]1O[C@@H](n2cc(F)c(=O)[nH]c2=O)[C@H](O)[C@@H]1O
- Potency [2]: inconclusive: 33.5 µM [inhibitor, single point] and active: 20.9 µM
- Potency [1]: inconclusive: 33.5 µM [inhibitor, single point]
- max response (CRL-7250): inactive: -5.52%
- Potency (HaCat): active: 10.6 µM
- Potency (Tov-21-G): inconclusive: 35.5 µM [cytotoxic, single point]
